Reference: the supplement of paper PMC10369915
The other results are listed elsewhere or left out. No stated cut-off is given here; in the data, active = 3.2 or more and inactive = the rest. Most of these values are background signal.

B1: EFCAB6_Y675 (peptide)
chain: MDDDQYALLTT
B2: EFR3A_Y73_R70C (peptide)
chain: RHCSGYVLIAM
B3: EGFR_Y112 (peptide)
chain: IRGNMYYENSY
B4: EGFR_Y112_R108K (peptide)
chain: IKGNMYYENSY
B5: EGFR_Y316 (peptide)
chain: CGADSYEMEED
B6: EGFR_Y764 (peptide)
chain: ILDEAYVMASV
B7: EGFR_Y764_S768I (peptide)
chain: ILDEAYVMAIV
B8: EHHADH_Y682_Q685K_YF (peptide)
chain: EKLQKYFRKNP
B9: EIF2AK3_Y585 (peptide)
chain: IKNSGYISRYL
B10: EIF2B3_Y92 (peptide)
chain: ADSLRYIYPKL
B11: EIF2B3_Y92_A87V_YF (peptide)
chain: VDSLRYIFPKL
B12: EIF2B5_Y583 (peptide)
chain: INSLKYAYNIS
B13: EIF2B5_Y583_YF (peptide)
chain: INSLKYAFNIS
B14: EIF2S2_Y174_E177D (peptide)
chain: GSERDYTYDEL
B15: EIF2S2_Y174_YF (peptide)
chain: GSERDYTFEEL
B16: EIF3A_Y382 (peptide)
chain: FNVLQYVVPEV
B17: EIF3M_Y351 (peptide)
chain: QWQQLYDTLNA
B18: ELP5_Y302 (peptide)
chain: YEPDAYDDLDQ
B19: EMD_Y181_P183H (peptide)
chain: SLDLSYYHTSS
B20: EML2_Y230_E235D (peptide)
chain: GKSHIYFWTLD
B21: ENG_Y614 (peptide)
chain: ALWYIYSHTRS
B22: ENTPD3_Y262 (peptide)
chain: HSFQCYGRNEA
B23: EP300_Y2219 (peptide)
chain: PQGVGYPPQQQ
B24: EPHA2_Y628_M631T (peptide)
chain: EFGEVYKGTLK
B25: EPHA2_Y772 (peptide)
chain: DPEATYTTSGG
B26: EPHA2_Y772_G777S (peptide)
chain: DPEATYTTSGS
B27: EPHA3_Y659 (peptide)
chain: TLKVGYTEKQR
B28: EPHA3_Y659_T660K (peptide)
chain: TLKVGYKEKQR
B29: EPHA7_Y202_S207F_YF (peptide)
chain: SVKVFYKKCWF
B30: EPHA7_Y202_YF (peptide)
chain: SVKVFYKKCWS
B31: EPHA8_Y616_E612Q (peptide)
chain: AQPHTYEEPGR
B32: EPHB2_Y742 (peptide)
chain: LADMNYVHRDL
B33: EPHB4_Y574_D576E (peptide)
chain: GREAEYSEKHG
B34: EPHX1_Y283_V285L (peptide)
chain: DVELLYPLKEK
B35: EPOR_Y485_N487S_YF (peptide)
chain: LSDGPYSSPFE
B36: EPOR_Y485_YF (peptide)
chain: LSDGPYSNPFE
B37: EPOR_Y489_N487S_YF (peptide)
chain: PFSSPYENSLI

How the values were obtained:
Assay in all cases: enrichment score (SH2-bound / input frequency) (ratio); bacterial display of known human phosphotyrosine sites (pTyr-Var adds point mutants) read by sequencing; higher = stronger binding; tyrosines were phosphorylated by kinases first
Details in all cases: peptide library: pTyr-Var
[1] = molecular target: SHP2 C-SH2 domain E139D
[2] = molecular target: SHP2 C-SH2 domain wild-type
[3] = molecular target: SHP2 N-SH2 domain L43F
[4] = molecular target: SHP2 N-SH2 domain T42A
[5] = molecular target: SHP2 N-SH2 domain T52S
[6] = molecular target: SHP2 N-SH2 domain wild-type
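Further: displayed peptides selected on beads carrying the immobilized SH2 domain, with library peptides lacking any tyrosine serving as negative controls.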

Binder	enrichment score [1]	enrichment score [2]	enrichment score [3]	enrichment score [4]	enrichment score [5]	enrichment score [6]
B1	inactive: 0.55	inactive: 0.667	inactive: 0.671	inactive: 0.639	inactive: 0.628	inactive: 0.677
B2	inactive: 1.5	inactive: 2.27	inactive: 1.95	inactive: 1.65	inactive: 1.54	inactive: 2.18
B3	inactive: 1.17	inactive: 0.972	inactive: 0.897	inactive: 1.09	inactive: 1.24	inactive: 1
B4	inactive: 1.41	inactive: 1.31	inactive: 1.1	inactive: 0.903	inactive: 1.01	inactive: 1.4
B5	inactive: 0.597	inactive: 0.869	inactive: 0.527	inactive: 0.57	inactive: 0.687	inactive: 1.03
B6	inactive: 0.649	inactive: 0.895	inactive: 0.797	inactive: 0.691	inactive: 0.657	inactive: 0.942
B7	inactive: 0.654	inactive: 0.798	inactive: 0.533	inactive: 0.577	inactive: 0.557	inactive: 0.874
B8	inactive: 0.912	inactive: 0.897	inactive: 0.667	inactive: 0.752	inactive: 0.703	inactive: 0.778
B9	inactive: 1.42	inactive: 1.11	inactive: 1.04	inactive: 1.11	inactive: 1.41	inactive: 1.15
B10	inactive: 0.978	inactive: 1.34	active: 5.52	active: 4.5	active: 6.01	inactive: 2.17
B11	inactive: 1.21	inactive: 1.55	active: 6.04	active: 6.44	active: 8.84	inactive: 3.16
B12	inactive: 1.22	inactive: 1.02	inactive: 1.13	inactive: 1.05	inactive: 1.08	inactive: 0.988
B13	inactive: 1.11	inactive: 0.939	inactive: 1.01	inactive: 0.758	inactive: 0.872	inactive: 0.907
B14	inactive: 0.411	inactive: 0.479	inactive: 0.527	inactive: 0.447	inactive: 0.399	inactive: 0.364
B15	inactive: 0.543	inactive: 0.456	inactive: 0.603	inactive: 0.519	inactive: 0.496	inactive: 0.745
B16	inactive: 1.73	inactive: 1.52	active: 4.42	active: 5.67	active: 6.99	inactive: 2.05
B17	inactive: 0.798	inactive: 0.677	inactive: 0.663	inactive: 0.701	inactive: 0.816	inactive: 0.883
B18	inactive: 0.375	inactive: 0.499	inactive: 0.569	inactive: 0.401	inactive: 0.521	inactive: 0.654
B19	inactive: 1.06	inactive: 0.897	inactive: 1.04	inactive: 0.776	inactive: 1.08	inactive: 0.82

Binder	enrichment score [1]	enrichment score [2]	enrichment score [3]	enrichment score [4]	enrichment score [5]	enrichment score [6]
B20	inactive: 1.4	inactive: 1.12	inactive: 0.94	inactive: 0.879	inactive: 1.12	inactive: 0.949
B21	inactive: 1.1	inactive: 0.975	inactive: 0.872	inactive: 0.831	inactive: 0.909	inactive: 1.13
B22	inactive: 0.614	inactive: 0.737	inactive: 0.683	inactive: 0.549	inactive: 0.594	inactive: 0.817
B23	inactive: 0.689	inactive: 1	inactive: 0.753	inactive: 0.726	inactive: 0.656	inactive: 0.521
B24	inactive: 0.55	inactive: 0.556	inactive: 0.556	inactive: 0.641	inactive: 0.483	inactive: 0.709
B25	inactive: 0.544	inactive: 0.547	inactive: 0.664	inactive: 0.526	inactive: 0.539	inactive: 0.718
B26	inactive: 0.358	inactive: 0.37	inactive: 0.395	inactive: 0.356	inactive: 0.535	inactive: 0.375
B27	inactive: 0.874	inactive: 0.72	inactive: 0.758	inactive: 0.821	inactive: 0.824	inactive: 0.902
B28	inactive: 0.926	inactive: 1.06	inactive: 1.17	inactive: 0.768	inactive: 0.805	inactive: 0.942
B29	inactive: 0.726	inactive: 0.781	inactive: 0.924	inactive: 0.51	inactive: 0.527	inactive: 1.03
B30	inactive: 0.612	inactive: 0.873	inactive: 0.684	inactive: 0.648	inactive: 0.41	inactive: 0.845
B31	inactive: 0.42	inactive: 0.525	inactive: 0.425	inactive: 0.563	inactive: 0.465	inactive: 0.494
B32	inactive: 0.514	inactive: 0.416	inactive: 0.6	inactive: 0.645	inactive: 0.659	inactive: 0.687
B33	inactive: 0.519	inactive: 0.537	inactive: 0.631	inactive: 0.46	inactive: 0.486	inactive: 0.671
B34	inactive: 0.678	inactive: 0.734	inactive: 0.726	inactive: 0.525	inactive: 0.598	inactive: 0.673
B35	inactive: 0.557	inactive: 0.554	inactive: 0.516	inactive: 0.553	inactive: 0.488	inactive: 0.469
B36	inactive: 0.842	inactive: 0.742	inactive: 0.807	inactive: 0.682	inactive: 0.576	inactive: 0.812
B37	inactive: 1.45	inactive: 1.57	inactive: 1.48	inactive: 1.66	inactive: 1.44	inactive: 1.68
